# Results as given in PubChem BioAssay AID651820 (National Center for Advancing Translational Sciences (NCATS), 2012).
# Hit rate of the full screen: of about 340,000 compounds, about 12,000 (3.5%) were called active. Inconclusive means that the source gave no clear call. Such entries were picked first, then a sample of the others. Calls come from the whole dose curve; as a rule, active = well fitted inhibition curve with a large enough effect; inconclusive = small, poorly fitted or top-dose-only effect, or another doubt; inactive = no such curve, though single readings can be large or run the other way. No potency is given beside an inconclusive call; the fits are too rough. Some compounds were tested as several samples or in several runs, with calls that do not always agree.
# Assay: qHTS Assay for Inhibitors of Hepatitis C Virus (HCV)
# Settings: Huh7.5.1 HCVcc-Cre (HCVcc is cell-culture hepatitis C virus) infection, luciferase reporter, 44 h; activity change, negative = inhibition: at 41.8 µM (top of the series)
# Summary of the method: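 Seed cells (1,000/well) for 4 h; treat with compound and infect with HCVcc-Cre, moi about 0.5. Incubate 44 h, then detect luciferase activity.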
# % is set by controls: 0 for no effect and ±100 for the full control effect; potency is the fitted concentration of half-maximal effect; tags give direction and shape of the fitted curve.
SMILES,Potency,"activity change, negative = inhibition"
Cc1cccc(Nc2nc(N)c([N+](=O)[O-])c(N3CCCC(C)C3)n2)c1 (stereo not given),"inconclusive [inhibitor, single point]",–
COc1ccc(NC(=S)Nc2cc(C)cc(C)n2)cc1OC,"inconclusive [inhibitor, full curve, poor fit]",–
COc1ccc(-c2nc(C#N)c(NCc3cccnc3)o2)cc1OC,–,inactive: -18.9%
COc1cccc(C2C(C(=O)c3cc4cccc(OC)c4o3)=C(O)C(=O)N2c2cc(C)on2)c1OC (stereo not given),inactive,–
CCN(CC(=O)Nc1ccc(NC(C)=O)cc1)C(=O)/C=C/c1cn(-c2ccccc2)nc1-c1cccs1,"inconclusive [inhibitor, single point]",–
Cc1ccc(Nc2nc(Cl)c(C=O)s2)cc1Cl,"inconclusive [inhibitor, single point]",–
O=C(Nc1ccc2c(c1)OCCO2)c1cc2ccccc2o1,active: 22.4 µM,–
CC(C)NC(NC(=O)Cc1ccccc1)C(Cl)(Cl)Cl (stereo not given),–,inactive: 8.85%
O=S(=O)(c1ccc2c(c1)OCCO2)N1CCC(O)(c2ccc(Cl)cc2)CC1,–,inactive: -24.3%
CCNC(=S)N/N=C/c1c(C)nn(-c2cccc(Cl)c2)c1Cl,"inconclusive [inhibitor, partial curve]",–
COc1ccccc1-c1sc2ccccc2c1-c1ccc(OCCN2CCOCC2)cc1,"inconclusive [inhibitor, partial curve]",–
Cc1cccc(N(CC(O)CON=C2c3ccccc3-c3ccccc32)S(C)(=O)=O)c1 (stereo not given),"inconclusive [inhibitor, single point]",–
CCOc1ccccc1NC(=O)CC1Nc2cc(C)c(C)cc2NC1=O (stereo not given),"inconclusive [inhibitor, single point]",–
CC1(/[N+]([O-])=C/c2ccc(F)cc2)CCCCC1=O (stereo not given),"inconclusive [inhibitor, single point]",–
CC(C)c1ccccc1NC(=O)c1cccc(NC(=O)c2ccccc2)c1,"inconclusive [inhibitor, partial curve]",–
NC(N)=NC(N)=Nc1ccc2ccccc2c1,"inconclusive [inhibitor, single point]",–
CCn1c(SCc2nnc(-c3ccccc3)o2)nnc1-c1ccc(S(=O)(=O)N2CCCC2)cc1,"inconclusive [inhibitor, single point]",–
COC(=O)CC1C(=O)NCCN1C(=S)NC(=O)c1sc2ccccc2c1Cl (stereo not given),–,inactive: -11.5%
COc1ccc(S(=O)(=O)Nc2cc3c4c(c2)CCC(=O)N4CCC3)cc1C,"inconclusive [inhibitor, single point]",–
NC1=NC(c2ccc(Cl)cc2)N(c2ccc(S(N)(=O)=O)cc2)C(N)=N1 (stereo not given),–,inactive: -2.57%
CCOC(=O)[C@H]1[C@H]2COc3ccccc3[C@@H]2N2C(=O)[C@@H](CO)NC(=O)[C@@]12C,"inconclusive [inhibitor, single point]",–
COc1ccc(OC)c(C2=NS(=O)(=O)N(C)C(C(=O)Nc3ccc(F)cc3F)=C2)c1,active: 14.1 µM,–
O=C(Nc1cccc(C(F)(F)F)c1)c1cccnc1N1CCN(c2ccccc2)CC1,"inconclusive [inhibitor, single point]",–
Cc1cc(OCC(=O)NCc2cccnc2)c2c(C)c(Cc3ccccc3)c(=O)oc2c1,"inconclusive [inhibitor, single point]",–

SMILES,Potency,"activity change, negative = inhibition"
O=C(O)CCc1ccc(-c2ccccc2)n1Cc1ccco1,–,inactive: -3.26%
C/C(=N\NC(=O)CNC(=O)c1ccc(F)cc1)c1ccco1,"inconclusive [inhibitor, single point]",–
COc1ccc(CNCc2ccc3ccccc3c2)c(OC)c1,"inconclusive [inhibitor, single point]",–
Cc1ccc(-c2nnc3ccc(SCC(=O)Nc4cc(C)on4)nn23)cc1,–,inactive: 16.4%
O=C(NCc1ccco1)c1ccc(N2CCCCC2)c([N+](=O)[O-])c1,"inconclusive [inhibitor, partial curve]",–
COc1ccc(CNC(=O)CN2CCC(n3nnc4cc(F)ccc43)CC2)cc1,"inconclusive [inhibitor, full curve]",–
Cc1ccc(-n2nc(C(=O)c3ccccc3)n3c(=O)c(Cc4ccccc4)nnc23)cc1,"inconclusive [inhibitor, single point]",–
COc1ccc(N2CCN(C(=O)C3CCCN(S(=O)(=O)c4cccc5cccnc45)C3)CC2)cc1 (stereo not given),"inconclusive [inhibitor, single point]",–
O=c1c2ccccc2nc2n1CCN2Cc1ccc(Cl)cc1,"inconclusive [inhibitor, full curve]",–
COc1ccc2c(C)cc(Sc3nnnn3-c3ccccc3)nc2c1,–,inactive: -2.44%
O=C(C1COc2ccccc2O1)N1CCN(c2nc3ccc([N+](=O)[O-])cc3s2)CC1 (stereo not given),"inconclusive [inhibitor, partial curve]",–
Cc1ccc(/C=N/NC(=O)COc2ccccc2-c2ccccc2)cc1,"inconclusive [inhibitor, full curve, poor fit]",–
COc1ccc(CNS(=O)(=O)c2cc3c4c(c2)C(C)C(=O)N4CCC3)cc1 (stereo not given),–,inactive: -20.8%
COc1ccccc1NC(=S)NCc1ccc(Cl)cc1,"inconclusive [inhibitor, full curve, poor fit]",–
COC(=O)c1sc(NC(=O)CSc2nncs2)c(C(=O)OC)c1C,"inconclusive [inhibitor, single point]",–
COCc1c(C(=O)OCc2nc(N)nc(Nc3ccccc3C)n2)oc2ccccc12,"inconclusive [inhibitor, full curve]",–
CC(C)[C@@H]1CN=C(N)N1C[C@@H]1CCCN1C[C@H](C)N1C[C@@H](Cc2ccccc2)N(CCc2ccc(Cl)c(Cl)c2)C1=N,active: 0.562 µM,–
O=C(CN1C(=O)CCSc2ccccc21)NC1CCCCC1,"inconclusive [inhibitor, single point]",–
CCn1cc(C(=O)O)c(=O)c2cc(F)c(N3CCN(C(=S)NC(=O)c4ccccc4C)CC3)cc21,–,inactive: 5.47%
COc1ccccc1NC(=O)CN(c1ccccc1)S(=O)(=O)c1ccccc1,"inconclusive [inhibitor, single point]",–
CCOc1ccc(C(=O)/C=C/c2cn(CN3CCN(C)CC3)c3ccccc23)cc1,"inconclusive [inhibitor, full curve]",–
CN(C)CCNC(=S)Nc1ccc(-c2nc3ccccc3[nH]2)cc1,–,inactive: -19.5%
COc1ccccc1NS(=O)(=O)c1ccc(-c2cc(C)no2)s1,–,inactive: -5.6%
CC(=O)N1CCN(CC(=O)Nc2ccccc2C(=O)Nc2ccccc2)CC1,–,inactive: 16.5%

SMILES,Potency,"activity change, negative = inhibition"
Cc1cc(C)c(S(=O)(=O)N2CCC3(CC2)OCCN3S(=O)(=O)c2cccs2)c(C)c1,active: 11.2 µM,–
CN1CCN(C(=O)CSc2nnc(COc3ccccc3)o2)CC1,"inconclusive [inhibitor, single point]",–
CCCN1CCC(NC(=S)Nc2ccc(C(=O)OCC)cc2)CC1,"inconclusive [inhibitor, partial curve]",–
CCn1ncc(-c2csc(N)n2)c1C,–,inactive: -10.4%
Cc1ccc2c(c1)C(=O)N1[C@H]3c4cc(Br)ccc4OC[C@@H]3[C@H](c3ccccc3)[C@]1(C)C(=O)N2,"inconclusive [inhibitor, single point]",–
Cc1cccc(NS(=O)(=O)c2ccc(C(=O)NCCCN3CCCC3=O)cc2)c1C,–,inactive: -5.95%
O=C(COc1ccccc1)N1CCN(c2ccc([N+](=O)[O-])c(N3CCCCC3)c2)CC1,active: 7.08 µM,–
CCOC(=O)N1CCC(NC(=O)c2cc(S(=O)(=O)N3CCC4(CC3)OCCO4)ccc2F)CC1,"inconclusive [inhibitor, single point]",–
CN(CC(=O)NCC1COc2ccccc2O1)S(=O)(=O)c1ccc(Cl)cc1 (stereo not given),"inconclusive [inhibitor, partial curve]",–
CC1CN(S(=O)(=O)c2cccc(C(=O)OCc3cc(=O)oc4cc(O)ccc34)c2)CC(C)O1 (stereo not given),active: 10 µM,–
CN(C)S(=O)(=O)c1cccc(NC(=O)Cc2ccsc2)c1,–,inactive: -5.68%
COc1ccc(-n2nnnc2SCC#CCO)cc1,–,inactive: -24.7%
CC1CCN(C(=O)c2cc3ccccc3c(=O)o2)CC1,–,inactive: -12.1%
Cc1cc(S(=O)(=O)Nc2ccc(C(=O)NCC(c3ccccc3)N(C)C)cc2)ccc1F (stereo not given),–,inactive: -7.64%
CCOC(=O)/C=C(\C)Sc1cc(O)c2ccccc2c1O,"inconclusive [inhibitor, single point]",–
O=C(CN1CCc2ccccc2C1)Nc1ccccc1N1CCCCCC1,"inconclusive [inhibitor, single point]",–
OCCCN1CCN(CCCOc2ccccc2-c2ccccc2)CC1,–,inactive: -24%
COc1ccc(Cn2nc(C(=O)O)c3ccccc3c2=O)cc1F,"inconclusive [inhibitor, partial curve, poor fit]",–
COc1ccc(NS(=O)(=O)c2ccc(N3CCCC3=O)cc2)cn1,"inconclusive [inhibitor, single point]",–
O=C(/C=C/c1c[nH]c2ccccc12)c1ccccc1,"inconclusive [inhibitor, partial curve]",–
COc1cc2ccccc2cc1C(=O)Nc1nccs1,active: 11.2 µM,–
Cc1cc(NC(=O)CCC(=O)N(Cc2ccco2)C2(C(=O)NC3CCCC3)CCCCC2C)no1 (stereo not given),"inconclusive [inhibitor, full curve]",–
